Reference: article PMC7819943, “Rice protein-binding microarrays: a tool to detect cis-acting elements near promoter regions in rice”
This is one part of the list.

target: T1, OsWOX13 (Oryza sativa, UniProt Q5QMM3 1-267); assay: protein-binding microarray (RPBM); PBS, 2% BSA, 51.3 ng/ul salmon testes DNA, 50 uM zinc acetate, 200 nM TF, 25 C, 1 h; high values mean tight binding; settings: protein: recombinant; tags: N-terminal polyhistidine and DsRed monomer fusion (pET32a); label: CyDye5-dUTP incorporated in the synthesized complementary strand; 3' TTTTT single-stranded linker to array surface; dsDNA, one strand shown
T1 sequence: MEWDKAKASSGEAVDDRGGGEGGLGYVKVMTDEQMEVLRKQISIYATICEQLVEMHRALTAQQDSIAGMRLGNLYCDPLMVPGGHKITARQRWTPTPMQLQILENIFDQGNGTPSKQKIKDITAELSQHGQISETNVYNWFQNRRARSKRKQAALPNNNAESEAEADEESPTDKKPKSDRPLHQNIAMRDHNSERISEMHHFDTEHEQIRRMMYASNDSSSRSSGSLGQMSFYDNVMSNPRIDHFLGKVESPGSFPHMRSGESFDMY
Procedure, shortened: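 Per-feature fluorescence intensity (arbitrary units), read on an Axon 4000B scanner, is the binding signal. Transcription factors carrying an N-terminal polyhistidine tag and DsRed fusion were expressed in E. coli BL21-CodonPlus and purified on Ni–NTA. A custom Agilent array, made double-stranded by primer extension with Cy5-dUTP and blocked with 2% BSA, was incubated with 200 nM protein in PBS, 2% BSA, salmon testes DNA and 50 µM zinc acetate at 25 °C for 1 h and then washed.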

First: TAGATAGATAGATAGATAGATAGATAGATAGATAGTGAACCGGAGTCACCTAGTGCAG
Second: AATAATTAAGCTGTTAGCCCACTAAAGGATGGGCCGTTTGCGGAGTCACCTAGTGCAG
The binding signal of the first is higher: 32400 fluorescence intensity (a.u.) for the first, 14400 fluorescence intensity (a.u.) for the second.

First: AAACTGACATGATCCGATCAACATGATATATAGGCTAGCCCGGAGTCACCTAGTGCAG
Second: AATAATGAAAACTCAATCAATCATGCGTTAATACCATCTCCGGAGTCACCTAGTGCAG
The binding signal of the first is lower: 3200 fluorescence intensity (a.u.) for the first, 16200 fluorescence intensity (a.u.) for the second.

Compared with “CAAAACAGACGAACAGGTTGAGGAGTGTCATATTCTGGTGCGGAGTCACCTAGTGCAG”, “CTTTTGAGTCTAATTACGCCATGATTTGGCAATGTGGTGCCGGAGTCACCTAGTGCAG” is higher in binding signal: 3370 fluorescence intensity (a.u.) for the first, 16800 fluorescence intensity (a.u.) for the second.

Going from “ATATTAACAGCTCATAAATTTATGAAAACATGTTGATTCGCGGAGTCACCTAGTGCAG” to “CCGATAATTAATGAGTTCACGTGCATCAACAATGCTCTACCGGAGTCACCTAGTGCAG”, the binding signal rises from 19200 fluorescence intensity (a.u.) to 25900 fluorescence intensity (a.u.).

Compared with “TATCAATCAAATCGATAATCTTTGAGCAATTCTCTGTTTTCGGAGTCACCTAGTGCAG”, “CATAACTTACTATTAATTGTATGGAAAATATTAATGTTTGCGGAGTCACCTAGTGCAG” is lower in binding signal: 36600 fluorescence intensity (a.u.) for the first, 23800 fluorescence intensity (a.u.) for the second.

First: CCGTACTTAATTATTACAATGATTCCACGCTAATTTAGAACGGAGTCACCTAGTGCAG
Second: AAATAATCATGTACAATCTTGTTGTTGGTAAATAGTAACTCGGAGTCACCTAGTGCAG
The binding signal of the first is higher: 30200 fluorescence intensity (a.u.) for the first, 6690 fluorescence intensity (a.u.) for the second.

Going from “CAGTAACTGTAATAGTGATAACATTATGGTGGAGGATCCTCGGAGTCACCTAGTGCAG” to “TTGAATTTAATAAAATAATTTGTTGTAGTAGATGTTGCTACGGAGTCACCTAGTGCAG”, the binding signal rises from 3650 fluorescence intensity (a.u.) to 7560 fluorescence intensity (a.u.).

Compared with “CGGTCATGGATTTGAATCAATCAGTCATTCGCTGTAGTGCCGGAGTCACCTAGTGCAG”, “ACACGCAATCAAAATGCTTACAAATCAAACCGCCTCTCGACGGAGTCACCTAGTGCAG” is lower in binding signal: 14100 fluorescence intensity (a.u.) for the first, 6480 fluorescence intensity (a.u.) for the second.

Compared with “CCCTAAGTGGGTCAATTAAGACCAATTGGGCTTTACAATTCGGAGTCACCTAGTGCAG”, “ATTTGTATTGATTACCACCATCTATATCTATATCTATACTCGGAGTCACCTAGTGCAG” is lower in binding signal: 10100 fluorescence intensity (a.u.) for the first, 3180 fluorescence intensity (a.u.) for the second.

First: TGAATAATTCAATTATTTTAGGTAAAGCAAACATCGTAAGCGGAGTCACCTAGTGCAG
Second: CTCGTTTAATAGATTGCCGGATATGCCTCCGAAAAGCTAACGGAGTCACCTAGTGCAG
The binding signal of the first is lower: 7780 fluorescence intensity (a.u.) for the first, 18000 fluorescence intensity (a.u.) for the second.

First: CGTTCTCAATCAATCATTCCATACTCGCTATCCCCTCCATCGGAGTCACCTAGTGCAG
Second: TCCGGTAATTTCTCCACCCCTTCTCTTGGCCTATAAATTGCGGAGTCACCTAGTGCAG
The binding signal of the first is higher: 33700 fluorescence intensity (a.u.) for the first, 8770 fluorescence intensity (a.u.) for the second.

Compared with “GCCCTACACAATTTAATTACGTTGACACTGGCCGGTCTTACGGAGTCACCTAGTGCAG”, “ATGAGATAATTAGTTTTATTTTATTTTATTTTGGTTGTTACGGAGTCACCTAGTGCAG” is higher in binding signal: 7560 fluorescence intensity (a.u.) for the first, 27100 fluorescence intensity (a.u.) for the second.

Compared with “AGTTGATAGGAGTAGCTTGAAGAAGCAGAGACAGCTAGATCGGAGTCACCTAGTGCAG”, “AAGCCTAATTAATCCGTTATTAGTAAATGTTTACTATAGCCGGAGTCACCTAGTGCAG” is higher in binding signal: 7600 fluorescence intensity (a.u.) for the first, 24300 fluorescence intensity (a.u.) for the second.

First: GACTTGATTTACAGATTTATTGACAGAGTTTTGCTAAGCTCGGAGTCACCTAGTGCAG
Second: TGAGTATATATAATTAGGGATTAAATTACAATATTTTAAGCGGAGTCACCTAGTGCAG
The binding signal of the first is higher: 56600 fluorescence intensity (a.u.) for the first, 5780 fluorescence intensity (a.u.) for the second.

Compared with “ACCTCAAATTGCAGTACGGATTGGGTACTAGTCATCAACACGGAGTCACCTAGTGCAG”, “AGAATTGATTAGCTCTTGTTTCTATCATGTTAAACACATTCGGAGTCACCTAGTGCAG” is higher in binding signal: 5990 fluorescence intensity (a.u.) for the first, 33000 fluorescence intensity (a.u.) for the second.

First: GTAAATATTAATGAATTGCTTGTTTATGTTTAAATAAATGCGGAGTCACCTAGTGCAG
Second: ATATCTAGACAATCAAGCTGTTGACCGAGTTTTCAGGGTGCGGAGTCACCTAGTGCAG
The binding signal of the first is lower: 4960 fluorescence intensity (a.u.) for the first, 5100 fluorescence intensity (a.u.) for the second.

Going from “TGTGATTGGTGCGTTTACCGGTTGCAAGTTGCCTCGCCGCCGGAGTCACCTAGTGCAG” to “TTGTGTCACAGTATAAATTAAGTTCCGTACGTGCATACTTCGGAGTCACCTAGTGCAG”, the binding signal falls from 48900 fluorescence intensity (a.u.) to 3160 fluorescence intensity (a.u.).

Compared with “TAGATTAATTATATTTATCTCTCATATAATGTGTGCTATACGGAGTCACCTAGTGCAG”, “TTGAAGTTTATTAATTGTACATCTTTAAACAAATATCTCACGGAGTCACCTAGTGCAG” is lower in binding signal: 24400 fluorescence intensity (a.u.) for the first, 3450 fluorescence intensity (a.u.) for the second.

Going from “CCTAAAAGATTTGATGATGTTGCAAATAAAATTATAAGAACGGAGTCACCTAGTGCAG” to “TGAAATAATTTGAGGAAGTAAAATTTTATATATATACTCCCGGAGTCACCTAGTGCAG”, the binding signal rises from 4010 fluorescence intensity (a.u.) to 7440 fluorescence intensity (a.u.).

Compared with “TTTATTGTGACTTGATTTATCATCAAATGTTCTTTAAGAACGGAGTCACCTAGTGCAG”, “TTGAAATTTTGTATATCAAGCCACTAGTCTAGTAGGCTATCGGAGTCACCTAGTGCAG” is lower in binding signal: 8720 fluorescence intensity (a.u.) for the first, 3390 fluorescence intensity (a.u.) for the second.

Compared with “ATCAAATTAATTGATGGTGTTTAATTAACAGGGAAGGCTACGGAGTCACCTAGTGCAG”, “CGAAATGCAAATTAATTAGTTGCAGAGGATAAATTTGCATCGGAGTCACCTAGTGCAG” is lower in binding signal: 46700 fluorescence intensity (a.u.) for the first, 41500 fluorescence intensity (a.u.) for the second.

First: GAGTTGATTTGCGTTGTCTCTCCGTCTCTTTCTTATTAATCGGAGTCACCTAGTGCAG
Second: AGATTCAGGAATTGACAACTTATCATTGGACAATTTCAGCCGGAGTCACCTAGTGCAG
The binding signal of the first is higher: 20800 fluorescence intensity (a.u.) for the first, 4130 fluorescence intensity (a.u.) for the second.

First: TTGATTAATTACAAGGCAGCTATAACGGTGTAACCTACCGCGGAGTCACCTAGTGCAG
Second: ATAATTGAATACTACATAAGCACAACAGGAGCCAAAATAACGGAGTCACCTAGTGCAG
The binding signal of the first is higher: 51700 fluorescence intensity (a.u.) for the first, 10100 fluorescence intensity (a.u.) for the second.

First: TTAAGATTAAGATTAAGATAGATAATAATACGACATGTTCCGGAGTCACCTAGTGCAG
Second: CTTTGTACTGACAGGATATATTTGGCAATCAGTACACTCACGGAGTCACCTAGTGCAG
The binding signal of the first is higher: 9470 fluorescence intensity (a.u.) for the first, 3910 fluorescence intensity (a.u.) for the second.

First: CAGCCAAAATTTAAATTTTCAACCATAAATTTGGAGTTGACGGAGTCACCTAGTGCAG
Second: ATTTAATGTACAATCATGCTTTTCCGTACTAAATTTTGTTCGGAGTCACCTAGTGCAG
The binding signal of the first is lower: 8820 fluorescence intensity (a.u.) for the first, 14800 fluorescence intensity (a.u.) for the second.

Going from “GGTAAATAGATTCAAATTTCTAATTTGTTACCGGTGCATGCGGAGTCACCTAGTGCAG” to “GGTCAATTTCTTTCTAGCAATTCATGATAAGTACTCATTCCGGAGTCACCTAGTGCAG”, the binding signal falls from 27400 fluorescence intensity (a.u.) to 3150 fluorescence intensity (a.u.).

Going from “CGAGTAAATTAACGCACGCTACAAAAGTTCAATAATGGCCCGGAGTCACCTAGTGCAG” to “TGCACGTAATCTTCCTAATTAGCTAGCCCATTGGTATTTGCGGAGTCACCTAGTGCAG”, the binding signal rises from 7200 fluorescence intensity (a.u.) to 19800 fluorescence intensity (a.u.).
